{"source": "the supplement of paper PMC12423691", "binders": {"B1": {"name": "TSC22D4, Q9Y3Q8 (protein)", "chain": "MSGGKKKSSFQITSVTTDYEGPGSPGASDPPTPQPPTGPPPRLPNGEPSPDPGGKGTPRNGSPPPGAPSSRFRVVKLPHGLGEPYRRGRWTCVDVYERDLEPHSFGGLLEGIRGASGGAGGRSLDSRLELASLGLGAPTPPSGLSQGPTSWLRPPPTSPGPQARSFTGGLGQLVVPSKAKAEKPPLSASSPQQRPPEPETGESAGTSRAATPLPSLRVEAEAGGSGARTPPLSRRKAVDMRLRMELGAPEEMGQVPPLDSRPSSPALYFTHDASLVHKSPDPFGAVAAQKFSLAHSMLAISGHLDSDDDSGSGSLVGIDNKIEQAMDLVKSHLMFAVREEVEVLKEQIRELAERNAALEQENGLLRALASPEQLAQLPSSGVPRLGPPAPNGPSV"}, "B2": {"name": "RARA, P10276 (protein)", "chain": "MASNSSSCPTPGGGHLNGYPVPPYAFFFPPMLGGLSPPGALTTLQHQLPVSGYSTPSPATIETQSSSSEEIVPSPPSPPPLPRIYKPCFVCQDKSSGYHYGVSACEGCKGFFRRSIQKNMVYTCHRDKNCIINKVTRNRCQYCRLQKCFEVGMSKESVRNDRNKKKKEVPKPECSESYTLTPEVGELIEKVRKAHQETFPALCQLGKYTTNNSSEQRVSLDIDLWDKFSELSTKCIIKTVEFAKQLPGFTTLTIADQITLLKAACLDILILRICTRYTPEQDTMTFSDGLTLNRTQMHNAGFGPLTDLVFAFANQLLPLEMDDAETGLLSAICLICGDRQDLEQPDRVDMLQEPLLEALKVYVRKRRPSRPHMFPKMLMKITDLRSISAKGAERVITLKMEIPGSMPPLIQEMLENSEGLDTLSGQPGGGGRDGGGLAPPPGSCSPSLSPSSNRSSPATHSP"}, "B3": {"name": "POU2F1, P14859 (protein)", "chain": "MNNPSETSKPSMESGDGNTGTQTNGLDFQKQPVPVGGAISTAQAQAFLGHLHQVQLAGTSLQAAAQSLNVQSKSNEESGDSQQPSQPSQQPSVQAAIPQTQLMLAGGQITGLTLTPAQQQLLLQQAQAQAQLLAAAVQQHSASQQHSAAGATISASAATPMTQIPLSQPIQIAQDLQQLQQLQQQNLNLQQFVLVHPTTNLQPAQFIISQTPQGQQGLLQAQNLLTQLPQQSQANLLQSQPSITLTSQPATPTRTIAATPIQTLPQSQSTPKRIDTPSLEEPSDLEELEQFAKTFKQRRIKLGFTQGDVGLAMGKLYGNDFSQTTISRFEALNLSFKNMCKLKPLLEKWLNDAENLSSDSSLSSPSALNSPGIEGLSRRRKKRTSIETNIRVALEKSFLENQKPTSEEITMIADQLNMEKEVIRVWFCNRRQKEKRINPPSSGGTSSSPIKAIFPSPTSLVATTPSLVTSSAATTLTVSPVLPLTSAAVTNLSVTGTSDTTSNNTATVISTAPPASSAVTSPSLSPSPSASASTSEASSASETSTTQTTSTPLSSPLGTSQVMVTASGLQTAAAAALQGAAQLPANASLAAMAAAAGLNPSLMAPSQFAAGGALLSLNPGTLSGALSPALMSNSTLATIQALASGGSLPITSLDATGNLVFANAGGAPNIVTAPLFLNPQNLSLLTSNPVSLVSAAAASAGNSAPVASLHATSTSAESIQNSLFTVASASGAASTTTTASKAQ"}, "B4": {"name": "GSX1, Q9H4S2 (protein)", "chain": "MPRSFLVDSLVLREAGEKKAPEGSPPPLFPYAVPPPHALHGLSPGACHARKAGLLCVCPLCVTASQLHGPPGPPALPLLKASFPPFGSQYCHAPLGRQHSAVSPGVAHGPAAAAAAAALYQTSYPLPDPRQFHCISVDSSSNQLPSSKRMRTAFTSTQLLELEREFASNMYLSRLRRIEIATYLNLSEKQVKIWFQNRRVKHKKEGKGSNHRGGGGGGAGGGGSAPQGCKCASLSSAKCSEDDDELPMSPSSSGKDDRDLTVTP"}, "B5": {"name": "ERBB2IP, Q96RT1 (protein)", "chain": "MTTKRSLFVRLVPCRCLRGEEETVTTLDYSHCSLEQVPKEIFTFEKTLEELYLDANQIEELPKQLFNCQSLHKLSLPDNDLTTLPASIANLINLRELDVSKNGIQEFPENIKNCKVLTIVEASVNPISKLPDGFSQLLNLTQLYLNDAFLEFLPANFGRLTKLQILELRENQLKMLPKTMNRLTQLERLDLGSNEFTEVPEVLEQLSGLKEFWMDANRLTFIPGFIGSLKQLTYLDVSKNNIEMVEEGISTCENLQDLLLSSNSLQQLPETIGSLKNITTLKIDENQLMYLPDSIGGLISVEELDCSFNEVEALPSSIGQLTNLRTFAADHNYLQQLPPEIGSWKNITVLFLHSNKLETLPEEMGDMQKLKVINLSDNRLKNLPFSFTKLQQLTAMWLSDNQSKPLIPLQKETDSETQKMVLTNYMFPQQPRTEDVMFISDNESFNPSLWEEQRKQRAQVAFECDEDKDEREAPPREGNLKRYPTPYPDELKNMVKTVQTIVHRLKDEETNEDSGRDLKPHEDQQDINKDVGVKTSESTTTVKSKVDEREKYMIGNSVQKISEPEAEISPGSLPVTANMKASENLKHIVNHDDVFEESEELSSDEEMKMAEMRPPLIETSINQPKVVALSNNKKDDTKETDSLSDEVTHNSNQNNSNCSSPSRMSDSVSLNTDSSQDTSLCSPVKQTHIDINSKIRQEDENFNSLLQNGDILNSSTEEKFKAHDKKDFNLPEYDLNVEERLVLIEKSVDSTATADDTHKLDHINMNLNKLITNDTFQPEIMERSKTQDIVLGTSFLSINSKEETEHLENGNKYPNLESVNKVNGHSEETSQSPNRTEPHDSDCSVDLGISKSTEDLSPQKSGPVGSVVKSHSITNMEIGGLKIYDILSDNGPQQPSTTVKITSAVDGKNIVRSKSATLLYDQPLQVFTGSSSSSDLISGTKAIFKFDSNHNPEEPNIIRGPTSGPQSAPQIYGPPQYNIQYSSSAAVKDTLWHSKQNPQIDHASFPPQLLPRSESTENQSYAKHSANMNFSNHNNVRANTAYHLHQRLGPARHGEMWAISPNDRLIPAVTRSTIQRQSSVSSTASVNLGDPGSTRRAQIPEGDYLSYREFHSAGRTPPMMPGSQRPLSARTYSIDGPNASRPQSARPSINEIPERTMSVSDFNYSRTSPSKRPNARVGSEHSLLDPPGKSKVPRDWREQVLRHIEAKKLEKKHPQTSSSGDPCQDGIFISGQQNYSSATLSHKDVPPDSLMKMPLSNGQMGQPLRPQANYSQIHHPPQASVARHPSREQLIDYLMLKVAHQPPYTQPHCSPRQGHELAKQEIRVRVEKDPELGFSISGGVGGRGNPFRPDDDGIFVTRVQPEGPASKLLQPGDKIIQANGYSFINIEHGQAVSLLKTFQNTVELIIVREVSS"}, "B6": {"name": "IRF4, Q15306 (protein)", "chain": "MNLEGGGRGGEFGMSAVSCGNGKLRQWLIDQIDSGKYPGLVWENEEKSIFRIPWKHAGKQDYNREEDAALFKAWALFKGKFREGIDKPDPPTWKTRLRCALNKSNDFEELVERSQLDISDPYKVYRIVPEGAKKGAKQLTLEDPQMSMSHPYTMTTPYPSLPAQQVHNYMMPPLDRSWRDYVPDQPHPEIPYQCPMTFGPRGHHWQGPACENGCQVTGTFYACAPPESQAPGVPTEPSIRSAEALAFSDCRLHICLYYREILVKELTTSSPEGCRISHGHTYDASNLDQVLFPYPEDNGQRKNIEKLLSHLERGVVLWMAPDGLYAKRLCQSRIYWDGPLALCNDRPNKLERDQTCKLFDTQQFLSELQAFAHHGRSLPRFQVTLCFGEEFPDPQRQRKLITAHVEPLLARQLYYFAQQNSGHFLRGYDLPEHISNPEDYHRSIRHSSIQE"}, "B7": {"name": "ZNF483, Q8TF39 (protein)", "chain": "MQAVVPLNKMTAISPEPQTLASTEQNEVPRVVTSGEQEAILRGNAADAESFRQRFRWFCYSEVAGPRKALSQLWELCNQWLRPDIHTKEQILELLVFEQFLTILPGEIRIWVKSQHPESSEEVVTLIEDLTQMLEEKDPVSQDSTVSQEENSKEDKMVTVCPNTESCESITLKDVAVNFSRGEWKKLEPFQKELYKEVLLENLRNLEFLDFPVSKLELISQLKWVELPWLLEEVSKSSRLDESALDKIIERCLRDDDHGLMEESQQYCGSSEEDHGNQGNSKGRVAQNKTLGSGSRGKKFDPDKSPFGHNFKETSDLIKHLRVYLRKKSRRYNESKKPFSFHSDLVLNRKEKTAGEKSRKSNDGGKVLSHSSALTEHQKRQKIHLGDRSQKCSKCGIIFIRRSTLSRRKTPMCEKCRKDSCQEAALNKDEGNESGEKTHKCSKCGKAFGYSASLTKHRRIHTGEKPYMCNECGKAFSDSSSLTPHHRTHSGEKPFKCDDCGKGFTLSAHLIKHQRIHTGEKPYKCKDCGRPFSDSSSLIQHQRIHTGEKPYTCSNCGKSFSHSSSLSKHQRIHTGEKPYKCGECGKAFRQNSCLTRHQRIHTGEKPYLCNDCGMTFSHFTSVIYHQRLHSGEKPYKCNQCEKAFPTHSLLSRHQRIHTGVKPYKCKECGKSFSQSSSLNEHHRIHTGEKPYECNYCGATFSRSSILVEHLKIHTGRREYECNECEKTFKSNSGLIRHRGFHSAE"}, "B8": {"name": "RPS6KA4, O75676 (protein)", "chain": "MGDEDDDESCAVELRITEANLTGHEEKVSVENFELLKVLGTGAYGKVFLVRKAGGHDAGKLYAMKVLRKAALVQRAKTQEHTRTERSVLELVRQAPFLVTLHYAFQTDAKLHLILDYVSGGEMFTHLYQRQYFKEAEVRVYGGEIVLALEHLHKLGIIYRDLKLENVLLDSEGHIVLTDFGLSKEFLTEEKERTFSFCGTIEYMAPEIIRSKTGHGKAVDWWSLGILLFELLTGASPFTLEGERNTQAEVSRRILKCSPPFPPRIGPVAQDLLQRLLCKDPKKRLGAGPQGAQEVRNHPFFQGLDWVALAARKIPAPFRPQIRSELDVGNFAEEFTRLEPVYSPPGSPPPGDPRIFQGYSFVAPSILFDHNNAVMTDGLEAPGAGDRPGRAAVARSAMMQDSPFFQQYELDLREPALGQGSFSVCRRCRQRQSGQEFAVKILSRRLEANTQREVAALRLCQSHPNVVNLHEVHHDQLHTYLVLELLRGGELLEHIRKKRHFSESEASQILRSLVSAVSFMHEEAGVVHRDLKPENILYADDTPGAPVKIIDFGFARLRPQSPGVPMQTPCFTLQYAAPELLAQQGYDESCDLWSLGVILYMMLSGQVPFQGASGQGGQSQAAEIMCKIREGRFSLDGEAWQGVSEEAKELVRGLLTVDPAKRLKLEGLRGSSWLQDGSARSSPPLRTPDVLESSGPAVRSGLNATFMAFNRGKREGFFLKSVENAPLAKRRKQKLRSATASRRGSPAPANPGRAPVASKGAPRRANGPLPPS"}}, "note": "The list shows a part of the results. Binding of human transcription factors and regulators to the viral nucleoprotein by AlphaScreen, crude cell-free proteins, amounts not normalised, one pass. Fold of the Venus control; higher = more signal. No active / inactive call. Single-pass screen; sequences are the whole Swiss-Prot entries looked up by name."}
{"molecular_target": "nucleoprotein N of Crimean-Congo hemorrhagic fever virus", "assay": "AlphaScreen luminescence signal relative to Venus negative control (fold); higher = stronger binding to CCHFV N", "method": "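AlphaScreen binding of cell-free made, FLAG-GST-tagged human transcription factors and regulators (crude translation products) to biotinylated N protein; signal as fold of the FLAG-GST-Venus control. One pass.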"}
{"binder": "B1", "AlphaScreen luminescence signal": 1.81}
{"binder": "B2", "AlphaScreen luminescence signal": 3.77}
{"binder": "B3", "AlphaScreen luminescence signal": 3.07}
{"binder": "B4", "AlphaScreen luminescence signal": 2.37}
{"binder": "B5", "AlphaScreen luminescence signal": 1.67}
{"binder": "B6", "AlphaScreen luminescence signal": 3.3}
{"binder": "B7", "AlphaScreen luminescence signal": 1.81}
{"binder": "B8", "AlphaScreen luminescence signal": 2.33}
